Reference: article PMC12136788
Some of the results follow.

T1: UNK ZnF1-3 (human, UniProt Q9C0B0 31-174)
T1 sequence: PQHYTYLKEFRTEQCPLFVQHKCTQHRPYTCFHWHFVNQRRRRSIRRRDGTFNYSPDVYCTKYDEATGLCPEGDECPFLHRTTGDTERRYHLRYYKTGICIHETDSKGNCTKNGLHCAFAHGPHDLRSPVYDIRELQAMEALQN

B1: chr1:109605286:109605287:-_ENSG00000197780_ENST00000461096|hu_mus|hu_hu_hu_mus_True|58_78 (ssRNA)
RNA: GGGAGUUCUACAGUCCGACGAUCAAGUUUCAGAGUAACAUUCAGUAACCUCUUUAACAAUUGUAAUCCUUAUUAUAAACUAAGGGCAAUAAUAAUUUAAUACCGUAAGUGAACUACACACAAAGCCUGAACCGCGAAAAUGGUCAACAGAGGAUUGAGCAUCA
B2: chr6:17872010:17872011:+_ENSMUSG00000029534_ENSMUST00000127322|mus_mus|FALSE|FALSE (ssRNA)
RNA: GGGAGUUCUACAGUCCGACGAUCUCACUGUCUCCUCUCUUCAGGAUGUGUUCUGGUGGGAGGAUUAAGCUUUUCAUUUCUAGUAGAUAUUUUGGCACGUGUGGAUUAAAUUCCACAGCUCUGUGGAUGGCUUCUACUGCAUUCCAACAGAGGAUUGAGCAUCA
B3: chr1:90059312:90059313:+_ENSG00000197147_ENST00000439853|hu_hu|FALSE|FALSE (ssRNA)
RNA: GGGAGUUCUACAGUCCGACGAUCCAAAGACAGUCGUGAGUAUACAUCAAGAAAAUUCAUAUUGAUGAGUUUAUGGUCUUGGUGAUAAAUAUCAAAACAGGAAGUCAGUUAAAACAAGUGUGCAAAUAAGUAAUGGGGACUGGGCAACAGAGGAUUGAGCAUCA
B4: 88684888_88685008_3608_3pUTR_ENSG00000107779_ENST00000372037|human|control|control (ssRNA)
RNA: GGGAGUUCUACAGUCCGACGAUCUAUUUAAAAAGCAUUAAAGAAGUAUAAGUUUAUGUAAAUCAGAUUUCUUGAGAUAACAAGGCAUCUAUAAAAUAUGAACCAUUUUAUUGAAGAACAGUUAUACAGUGUAGCUACAGAUACCAACAGAGGAUUGAGCAUCA
B5: chr4:175158536:175158537:-_ENSG00000164117_ENST00000503293|hu_hu|FALSE|FALSE (ssRNA)
RNA: GGGAGUUCUACAGUCCGACGAUCGCUUGAUUGUAUACUCAGGCUACAAUGACCAGCACUGAUGUAACCCCCAUAUCUGCUAAGUCCUUGGGUAGCUUUAGUCUGAAGUAAAAACUGAAGUCCUAGCAAUUGUGCUUUUUAUGCCAACAGAGGAUUGAGCAUCA
B6: chr3:176767854:176767855:-_ENSG00000177565_ENST00000430069|hu_hu|hu_hu_hu_mus_False|28_28 (ssRNA)
RNA: GGGAGUUCUACAGUCCGACGAUCGACAUCCUUGUUACUGGGCACGUCCUGCCCUCCUUCCCGUAUGCAGUGUCUAAGCACGAGCUGCGUAGGGCCACUCGUGCUGUUCUCACUAAGGUUCCAGAUUCUUGCCGUGGAGUCUCCCAACAGAGGAUUGAGCAUCA
B7: chr2:202488911:202488912:-_ENSG00000155755_ENST00000286196|hu_mus|hu_hu_hu_mus_False|18_18 (ssRNA)
RNA: GGGAGUUCUACAGUCCGACGAUCAUUGAAACAUUUUUCAUAAUCUCCAGUAGCAUUUCAGCAUUAUGUAACAAAAGCUCAAUUGUAAAUACAUGUAUCUUAUAAAAAUACACUUAAAUUUAAAAACGGGGAGCGCAGGCGCCACAACAGAGGAUUGAGCAUCA
B8: chr14:32562060:32562061:+_ENSG00000100852_ENST00000539826|hu_hu|motif|central (ssRNA)
RNA: GGGAGUUCUACAGUCCGACGAUCCUUUAUUUGGGUUUCAUUAAAUUUACGAGGAUAUGUACCAGCAGGUACAUCGGCAAAAGGACAUUGCAACUUGUUUGCCAACUGCUGCCCUUGGUGCCUGAGAAUUGGUAGAUUCUUACUCAACAGAGGAUUGAGCAUCA
B9: chr22:28307021:28307022:-_ENSG00000180957_ENST00000335272|hu_mus|FALSE|FALSE (ssRNA)
RNA: GGGAGUUCUACAGUCCGACGAUCUUCAUAAGGUUCAUUCUUCAGGACUUCGAUUCCUUCUCCACCACCAGUUUCAUUCUUACUCGCUUCUGCAACAGAGUAAAGCUGUCCAACCUGAUACUCUUGAACAGAACACGGCAAAACCAACAGAGGAUUGAGCAUCA
B10: 128432111_128434639_343_3pUTR_ENSG00000119487_ENST00000373498|human|control|control (ssRNA)
RNA: GGGAGUUCUACAGUCCGACGAUCUUCUUUCUUUCCACUGAAUAUUUUUGCAUUUGAUCUGGUUUUGUCUCUCUUUUCGGAGUCGUUCUAAUCUUUGAGCUGUGUUUGAGCGUCUUCUAAUACCAAAGUCCCAACUUGAGGUAACAACAGAGGAUUGAGCAUCA
B11: 120676072_120676440_3533_CDS_ENSMUSG00000025153_ENSMUST00000055655|mouse|control|control (ssRNA)
RNA: GGGAGUUCUACAGUCCGACGAUCCAGACCCUUGCACAGUUGCAGCUCCUUCUGCAGGGCAGUGCUCUCAGACAGGCACUCAGCCUCCAUGUGCGGUGUGAAAACGAACUUUUCCAAGGUGGGGACCAGCUGUUCUUGCUGCCGCAACAGAGGAUUGAGCAUCA
B12: chr7:140404665:140404666:+_ENSG00000090266_ENST00000247866|hu_hu|hu_hu_hu_mus_False|18_78 (ssRNA)
RNA: GGGAGUUCUACAGUCCGACGAUCUGCUCCUACUCGUCCAGAGAGUUUACAGUGUCAGUCUUCAUCAUCAGGAGGGAUUCCCAGUUCUUCAUCUGUCCACUGUGAAGGAUCUGGAUACGGAAAGUGACCCAGCACAGCAUCCGACAACAGAGGAUUGAGCAUCA
B13: chr7:75932113:75932114:+_ENSG00000106211_ENST00000248553|hu_hu|hu_hu_hu_mus_False|8_98 (ssRNA)
RNA: GGGAGUUCUACAGUCCGACGAUCCUGCGACCACUCAUCCGGCAGCCGGGGCACCCCGAAAGCUUGAUCGAAGAGGCGGCUGUGUGCAGGGUACCAGUCCCGGAAUGGUUCCCAGCUCGGGCUCCGCAGCGAGAAGGAGGGCACCAACAGAGGAUUGAGCAUCA
B14: chr7:44244176:44244177:+_ENSG00000106636_ENST00000223369|hu_hu|motif|central (ssRNA)
RNA: GGGAGUUCUACAGUCCGACGAUCACUAUCAUUCCGGACGUAGACGUGGCACAGAUAGUCUUGUUCUUUGACAGAAGCUCGGGUGCCUUUCGAUGAGCGCUCCACAAUCAGUUGACUCGUGAAGGUCAUGAAUUCCUGAACGCUCAACAGAGGAUUGAGCAUCA

These binders were tested against T1, UNK ZnF1-3 (assay: nsRBNS (natural sequence RNA bind-n-seq); RBNS binding buffer (assumed for nsRBNS): 25 mM Tris pH 7.5, 150 mM KCl, 3 mM MgCl2, 0.01% Triton X-100, 500 ug/ml BSA, 20 U/ml SUPERase-In, 4 C; UNK is unkempt and MSI1 is Musashi-1; names of the RNAs are library labels; protein concentration not given here; high values mean tight binding).

Question: B1 was tested. Which binding signal did it give?
Answer: 1.25 enrichment R

Question: How did the binding signal turn out when B2 was run?
Answer: 0.581 enrichment R

Question: For B3, which binding signal is on record?
Answer: 2.3 enrichment R

Question: Which binding signal does the source give for B4 here?
Answer: 1.96 enrichment R

Question: For B5, which binding signal is on record?
Answer: 0.662 enrichment R

Question: How did the binding signal turn out when B6 was run?
Answer: 0.469 enrichment R

Question: Which binding signal does the source give for B7 here?
Answer: 2.71 enrichment R

Question: How did the binding signal turn out when B8 was run?
Answer: 0.541 enrichment R

Question: B9 was tested. Which binding signal did it give?
Answer: 1.36 enrichment R

Question: How did the binding signal turn out when B10 was run?
Answer: 0.557 enrichment R

Question: With B11 as the binder, how does the binding signal read?
Answer: 1.18 enrichment R

Question: B12 was tested. Which binding signal did it give?
Answer: 1.32 enrichment R

Question: Which binding signal does the source give for B13 here?
Answer: 1.76 enrichment R

Question: For B14, which binding signal is on record?
Answer: 0.437 enrichment R
